# Data reported in article PMC12820563, “FoxP3 forms a head-to-head dimer in vivo and stabilizes its multimerization on adjacent microsatellites”.
# This is one part of the list.
# Target: T1, MBP-FoxP1dN (Mus musculus, UniProt P58462 326-579)
# T1 sequence: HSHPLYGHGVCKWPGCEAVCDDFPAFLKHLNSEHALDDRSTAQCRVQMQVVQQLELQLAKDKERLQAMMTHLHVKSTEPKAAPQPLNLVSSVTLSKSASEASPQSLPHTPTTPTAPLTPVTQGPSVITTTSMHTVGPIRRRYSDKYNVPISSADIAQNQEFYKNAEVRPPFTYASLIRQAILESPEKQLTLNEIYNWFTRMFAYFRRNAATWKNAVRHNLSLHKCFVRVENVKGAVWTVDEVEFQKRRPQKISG
# Assay: PD-seq (MBP pull-down with sequencing); 20 mM Tris-HCl pH 7.5, 100 mM NaCl, 1.5 mM MgCl2, 0.4 uM protein, 0.1 uM dsDNA library, 30 min, room temperature, amylose pull-down; high values mean tight binding
# Details: protein: recombinant; tags: His6-MBP; chain copies: 2; dsDNA, one strand shown
# Summary of the method: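 Binding is given as reads-per-million enrichment, pull-down over input, with replicates pooled. The bait was an N-terminus-lacking mouse FoxP3 or FoxP1 fragment with a His6-MBP tag, expressed in E. coli and used at 0.4 µM with 0.1 µM Klenow-filled degenerate double-stranded DNA library for 30 min at room temperature in Tris pH 7.5 buffer with NaCl and MgCl2. Amylose resin pull-down with three washes was followed by proteinase K release, PCR barcoding and Illumina sequencing.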
row,Sequence,binding signal
1,GATGATTGTTCTCCCAGCTGATGAATTTTCTAAATCGAGTAAACAAATTTTCCTAATCTTTCTGTTCAAGCGCCATCTAC,1.15 RPM ratio (pull-down/input)
2,GATGATTGTTCTCCCAGCTGATGAATTATCCCAGTCGAGTAAACAAATTTTCCTAATCTTTCTGTTCAAGCGCCATCTAC,0.862 RPM ratio (pull-down/input)
3,GATGATTGTTCTCCCAGCTGATGAATTCGCCAGATCGAGTAAACAAATTTTCCTAATCTTTCTGTTCAAGCGCCATCTAC,0.873 RPM ratio (pull-down/input)
4,GATGATTGTTCTCCCAGCTGATGAATTCCCTCTGTCGAGTAAACAAATTTTCCTAATCTTTCTGTTCAAGCGCCATCTAC,0.793 RPM ratio (pull-down/input)
5,GATGATTGTTCTCCCAGCTGATGAATTGACAGTTTCGAGTAAACAAATTTTCCTAATCTTTCTGTTCAAGCGCCATCTAC,1.26 RPM ratio (pull-down/input)
6,GATGATTGTTCTCCCAGCTGATGAATTTCACTGTTCGAGTAAACAAATTTTCCTAATCTTTCTGTTCAAGCGCCATCTAC,0.875 RPM ratio (pull-down/input)
7,GATGATTGTTCTCCCAGCTGATGAATTACGAGCTTCGAGTAAACAAATTTTCCTAATCTTTCTGTTCAAGCGCCATCTAC,0.95 RPM ratio (pull-down/input)
8,GATGATTGTTCTCCCAGCTGATGAATTCATCTCCTCGAGTAAACAAATTTTCCTAATCTTTCTGTTCAAGCGCCATCTAC,0.806 RPM ratio (pull-down/input)
9,GATGATTGTTCTCCCAGCTGATGAATTCGCCCTGTCGAGTAAACAAATTTTCCTAATCTTTCTGTTCAAGCGCCATCTAC,0.8 RPM ratio (pull-down/input)
10,GATGATTGTTCTCCCAGCTGATGAATTACTGTATTCGAGTAAACAAATTTTCCTAATCTTTCTGTTCAAGCGCCATCTAC,1.39 RPM ratio (pull-down/input)
11,GATGATTGTTCTCCCAGCTGATGAATTTGGTATCTCGAGTAAACAAATTTTCCTAATCTTTCTGTTCAAGCGCCATCTAC,0.989 RPM ratio (pull-down/input)
12,GATGATTGTTCTCCCAGCTGATGAATTACTAATATCGAGTAAACAAATTTTCCTAATCTTTCTGTTCAAGCGCCATCTAC,1.73 RPM ratio (pull-down/input)
13,GATGATTGTTCTCCCAGCTGATGAATTGAAGCACTCGAGTAAACAAATTTTCCTAATCTTTCTGTTCAAGCGCCATCTAC,0.871 RPM ratio (pull-down/input)
14,GATGATTGTTCTCCCAGCTGATGAATTATAGAAGTCGAGTAAACAAATTTTCCTAATCTTTCTGTTCAAGCGCCATCTAC,0.881 RPM ratio (pull-down/input)
15,GATGATTGTTCTCCCAGCTGATGAATTATCGGTTTCGAGTAAACAAATTTTCCTAATCTTTCTGTTCAAGCGCCATCTAC,1 RPM ratio (pull-down/input)
16,GATGATTGTTCTCCCAGCTGATGAATTCGAAGTATCGAGTAAACAAATTTTCCTAATCTTTCTGTTCAAGCGCCATCTAC,0.963 RPM ratio (pull-down/input)
17,GATGATTGTTCTCCCAGCTGATGAATTTGGGAGCTCGAGTAAACAAATTTTCCTAATCTTTCTGTTCAAGCGCCATCTAC,0.761 RPM ratio (pull-down/input)
18,GATGATTGTTCTCCCAGCTGATGAATTTAGGTATTCGAGTAAACAAATTTTCCTAATCTTTCTGTTCAAGCGCCATCTAC,1.13 RPM ratio (pull-down/input)
